Measured values from the supplement of paper PMC10126150.
Values marked as one replicate rest on one cluster of the flow cell; about a third of the high ones do not repeat.
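Also: ATP exposure 15 min at 22 °C before imaging.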

The sequences below were run on ATP (assay: switch fluorescence ratio, 500 uM ATP over buffer (Cy3 cluster intensity, sum of 5 cycles each) (fold (ratio)); higher = stronger signal-on switching upon ATP binding; sequences stand for … in TCGTCGGCAGCGTCAGATGTGTATAAGAGACAGTTTTTTTTTTTTTTTTTTTTTTTTT…TC). Conditions: aptamer strand: ATP DNA aptamer (quencher-CACCTGGGGGAGTATTGCGGAGGAAGG + anchor), 100 nM annealed; ATP concentration: 500 uM; one replicate.
Method in brief: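 Clusters with intensities outside 100-1000 RFU were excluded. The remaining Cy3-labelled switching-strand clusters on a modified Illumina MiSeq flow-cell had been annealed to 100 nM quencher-labelled ATP aptamer and imaged in selection buffer, then after 15 min with 500 uM ATP at 22 °C, for five cycles separated by NaOH stripping and re-annealing. The fluorescence ratio, averaged per switch-domain sequence, is each cluster's summed target-cycle Cy3 intensity over its summed buffer-cycle Cy3 intensity.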
TATGCGGTG was tested, and the switch fluorescence ratio was 0.989.
Sequence ATTGAGGCCG has a switch fluorescence ratio of 1.15.
Work on CTAGAATGCT yielded a switch fluorescence ratio of 1.
CGTCAATGCT gave a switch fluorescence ratio of 1.25.
CGAAGGATCC gave a switch fluorescence ratio of 0.999.
With GCTTATTTCG the switch fluorescence ratio was 0.998.
AAGAAAGGAG showed a switch fluorescence ratio of 1.04.
CGGTCTATAT showed a switch fluorescence ratio of 1.03.
TTCGTAAATT gave a switch fluorescence ratio of 1.02.
Work on AAACCCTATG yielded a switch fluorescence ratio of 1.03.
In the case of CAGAACCGGC, the switch fluorescence ratio is reported as 1.03.
With ATCTAGGCTA the switch fluorescence ratio was 0.982.
In the case of GGTTGAGTAC, the switch fluorescence ratio is reported as 1.09.
With ATTGAGATAA the switch fluorescence ratio was 1.01.
With TAATATCGAC the switch fluorescence ratio was 1.1.
Sequence TCTCCGATT has a switch fluorescence ratio of 1.68.
For TACGTCGAAG, the switch fluorescence ratio was 1.02.
For AACGTCGCTA, the switch fluorescence ratio was 1.02.
GGGATTTAGA was tested, and the switch fluorescence ratio was 1.
Work on AAAGGGATCT yielded a switch fluorescence ratio of 1.03.
TGACATATAC gave a switch fluorescence ratio of 1.53.
With TAAGGGTGAA the switch fluorescence ratio was 0.959.
Work on CAAGAGGAA yielded a switch fluorescence ratio of 0.979.
AGTTGAGACT gave a switch fluorescence ratio of 1.02.
Work on GCCCATTGAT yielded a switch fluorescence ratio of 1.01.
Work on GTCAATCTCT yielded a switch fluorescence ratio of 1.07.
Work on TGTTTGAGA yielded a switch fluorescence ratio of 0.983.
For AGCGATTAAC, the switch fluorescence ratio was 1.9.
Sequence ATGTGTCACC has a switch fluorescence ratio of 1.04.
CGAATATTGC showed a switch fluorescence ratio of 1.09.
For TTCAAATTCC, the switch fluorescence ratio was 1.06.
TTCACAGCGT was tested, and the switch fluorescence ratio was 1.
AACCTGATTC gave a switch fluorescence ratio of 1.62.
Work on AGCCCCACAC yielded a switch fluorescence ratio of 1.28.
CGCGCGTGG gave a switch fluorescence ratio of 1.01.
Sequence TTGGACCTA has a switch fluorescence ratio of 1.01.
CGACTTACAC was tested, and the switch fluorescence ratio was 1.29.
With AAATAGATCT the switch fluorescence ratio was 0.999.
GATAAAGGCC gave a switch fluorescence ratio of 1.01.
GTATGAGCTC gave a switch fluorescence ratio of 0.999.
AATCAGTGTT showed a switch fluorescence ratio of 1.04.
For GATCCACAAG, the switch fluorescence ratio was 1.02.
AACGATATA was tested, and the switch fluorescence ratio was 1.06.
TCTCGTGTGA showed a switch fluorescence ratio of 1.03.
CCGCGACATG showed a switch fluorescence ratio of 1.3.
AGCCAGATGG gave a switch fluorescence ratio of 0.998.
TCATGTTAGC gave a switch fluorescence ratio of 1.07.
With GCCGGCGAAT the switch fluorescence ratio was 0.972.
In the case of AAAGGTAGC, the switch fluorescence ratio is reported as 1.05.
CAAAGACAGA showed a switch fluorescence ratio of 1.01.
For ACGTATCCAA, the switch fluorescence ratio was 1.19.
ACGGGTGCAT was tested, and the switch fluorescence ratio was 1.03.
For ATTTTAGAC, the switch fluorescence ratio was 1.04.
For GTATGAAGGA, the switch fluorescence ratio was 0.987.
Work on TAGGCCTCTA yielded a switch fluorescence ratio of 0.958.
For CTAGGTCAGG, the switch fluorescence ratio was 0.99.
In the case of GGGACTAGTC, the switch fluorescence ratio is reported as 1.07.
With ACGTTAATAT the switch fluorescence ratio was 2.32.
AGCTACCGGC gave a switch fluorescence ratio of 1.05.
For GACGCAGGA, the switch fluorescence ratio was 1.29.
TGGGAGCGCT showed a switch fluorescence ratio of 0.87.
GACAGTATGT gave a switch fluorescence ratio of 1.
In the case of TATCAGAGAT, the switch fluorescence ratio is reported as 1.01.
For ATGCGCGTTG, the switch fluorescence ratio was 0.996.
In the case of GGTGGCCGGG, the switch fluorescence ratio is reported as 0.991.
CTGAGAGGGG was tested, and the switch fluorescence ratio was 0.97.
TCCGAACCTG showed a switch fluorescence ratio of 1.12.
CATGTGGCAG was tested, and the switch fluorescence ratio was 1.01.
Work on GTAACGTCTC yielded a switch fluorescence ratio of 1.03.
For AATATTAGTT, the switch fluorescence ratio was 0.983.
Sequence TTAGCGCATA has a switch fluorescence ratio of 1.15.
TTTCGTTGAG showed a switch fluorescence ratio of 0.977.
For GGGGTAATTA, the switch fluorescence ratio was 0.985.
ACAGGTTGG was tested, and the switch fluorescence ratio was 1.06.
In the case of GTCTGCAGGG, the switch fluorescence ratio is reported as 1.
Sequence TGGATAGGTC has a switch fluorescence ratio of 0.979.
In the case of TTGGCGAGCG, the switch fluorescence ratio is reported as 1.01.
For ATAACTCGTT, the switch fluorescence ratio was 1.
CCGTCCCCGG showed a switch fluorescence ratio of 3.03.
Work on GATCCTTTTG yielded a switch fluorescence ratio of 0.937.
With TTTGATATCG the switch fluorescence ratio was 0.992.
AGGCCGAACA gave a switch fluorescence ratio of 1.
In the case of CGTAGTATCG, the switch fluorescence ratio is reported as 0.95.
With GATGTGTACC the switch fluorescence ratio was 1.07.
GAGCTACACG gave a switch fluorescence ratio of 1.05.
For ACACACATGG, the switch fluorescence ratio was 1.26.
GGGAGTGCCC was tested, and the switch fluorescence ratio was 1.24.
AGTGACCCCG was tested, and the switch fluorescence ratio was 1.04.
Sequence GTGGCAGCAC has a switch fluorescence ratio of 1.02.
With GAACGCCGAC the switch fluorescence ratio was 1.51.
GGGTTAGACC gave a switch fluorescence ratio of 1.03.
Sequence GTGTTATACC has a switch fluorescence ratio of 1.02.
With CTGATGAGA the switch fluorescence ratio was 0.997.
CGATAATCCC showed a switch fluorescence ratio of 1.2.
GCCTTACGAG showed a switch fluorescence ratio of 1.63.
With CGAGCCTTGA the switch fluorescence ratio was 0.996.
For CGGTTATCTG, the switch fluorescence ratio was 1.04.
GTGTGTTCCC was tested, and the switch fluorescence ratio was 0.936.
For GGCCTAAAGT, the switch fluorescence ratio was 1.02.
TGCCGAACTT gave a switch fluorescence ratio of 1.02.
GCTGCTTTCA gave a switch fluorescence ratio of 1.
With ACAGTTGCGT the switch fluorescence ratio was 1.04.
GAGTATGAGT was tested, and the switch fluorescence ratio was 0.998.
With GCTGCCGTTT the switch fluorescence ratio was 1.01.
Work on CCACGGGGCC yielded a switch fluorescence ratio of 0.985.
With CGAGTGCAAC the switch fluorescence ratio was 1.02.
Sequence CTTGGTAAAC has a switch fluorescence ratio of 1.08.
For TCATAACGC, the switch fluorescence ratio was 1.11.
In the case of TAGCGGGCGG, the switch fluorescence ratio is reported as 0.998.
CGAGTTGG was tested, and the switch fluorescence ratio was 1.04.
Work on GCTACAGGC yielded a switch fluorescence ratio of 1.01.
Work on GGCAATGAGC yielded a switch fluorescence ratio of 1.07.
AGCCTGGTTA showed a switch fluorescence ratio of 0.998.
For TCGGGACCTC, the switch fluorescence ratio was 1.02.
For TGTGGAAGGC, the switch fluorescence ratio was 0.952.
Work on CGCTCACCCG yielded a switch fluorescence ratio of 1.23.
GTTGTTCATT showed a switch fluorescence ratio of 0.98.
TAGTCTATTC showed a switch fluorescence ratio of 1.01.
CTGCAGCTGG was tested, and the switch fluorescence ratio was 1.58.
Sequence TCTTGAGGAT has a switch fluorescence ratio of 1.
Work on AGCGTTCGAA yielded a switch fluorescence ratio of 1.02.
Sequence ATATGTAATA has a switch fluorescence ratio of 0.967.
For CGTTTTAGCG, the switch fluorescence ratio was 1.02.
For CGGACGTTGC, the switch fluorescence ratio was 2.05.
CTCATGACTA showed a switch fluorescence ratio of 1.03.
In the case of CCGGATTAAA, the switch fluorescence ratio is reported as 0.949.
TGGTACTCTT was tested, and the switch fluorescence ratio was 1.
With GCCTGTATAA the switch fluorescence ratio was 0.977.
In the case of GCGCTCGATA, the switch fluorescence ratio is reported as 1.
GTGTTTTT showed a switch fluorescence ratio of 0.99.
In the case of AATCTTACCA, the switch fluorescence ratio is reported as 1.
GTAGGGCCGA gave a switch fluorescence ratio of 1.02.
With TTACGGACCA the switch fluorescence ratio was 1.27.
Work on GCACCGGGAC yielded a switch fluorescence ratio of 1.57.
TGCTGCCAG gave a switch fluorescence ratio of 0.953.
GAGTATCAT showed a switch fluorescence ratio of 0.98.
For GATGGTGCCG, the switch fluorescence ratio was 0.997.
Work on TCATCGCAAT yielded a switch fluorescence ratio of 3.17.
TAATCCCGGA showed a switch fluorescence ratio of 1.04.
ACTAGATGTC was tested, and the switch fluorescence ratio was 0.983.
For GTACTGGTTC, the switch fluorescence ratio was 1.03.
Sequence TGTTTATAG has a switch fluorescence ratio of 0.973.
Work on CACTATTCAC yielded a switch fluorescence ratio of 1.11.
For TCGGCAAGAT, the switch fluorescence ratio was 2.28.
CGTACGGCCT was tested, and the switch fluorescence ratio was 0.971.
Work on TTTGGGTCGC yielded a switch fluorescence ratio of 0.991.
Sequence AAACGTAATC has a switch fluorescence ratio of 1.49.
Work on GCGTTAAATT yielded a switch fluorescence ratio of 1.01.
GTTTCATCT gave a switch fluorescence ratio of 0.99.
ATCAATTATT was tested, and the switch fluorescence ratio was 1.02.
Sequence TCCAGCTGCG has a switch fluorescence ratio of 0.991.
TGAGAATTT gave a switch fluorescence ratio of 0.994.
In the case of CTTTGCTTGA, the switch fluorescence ratio is reported as 1.08.
TTGATTTTA gave a switch fluorescence ratio of 1.01.
With AAAGTAGGAA the switch fluorescence ratio was 0.987.
With CAGACTGTTT the switch fluorescence ratio was 0.992.
TTGATGTACT gave a switch fluorescence ratio of 1.04.
CGGCTTATCA was tested, and the switch fluorescence ratio was 0.986.
